According to PubChem BioAssay AID760 (NMMLSC, 2007):
About 360 (0.19%) of roughly 190,000 compounds were called active. Inconclusive means that the source gave no clear call. Such entries were picked first, then a sample of the others.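 The calls were made as follows: active = GTP binding activity at least 20 points away from 100%, either lowered or raised; inconclusive = signal likely due to the compound's own green fluorescence; inactive = the rest.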

Target: Ras-related protein Rab-2A (Canis lupus familiaris) (UniProt P61105)
Assay: Rab2 wt fluorescent GTP binding changes, either direction – biochemical, dog, bead-based flow cytometry, multiplex, primary screen (AID 760);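 also: 0% = beads with excess unlabeled GTP and 100% = no-compound control corrected for plate trend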
Settings: GST-Rab2 wt beads, Bodipy-GTP binding, at 10 µM

| Compound | GTP binding activity |
| --- | --- |
| COc1cc(/C=N/Nc2ccccc2C(F)(F)F)ccc1O | inactive: 97% |
| CCOC(=O)c1ccc(NC(=O)c2cc3ccccc3o2)cc1 | inconclusive: 97% |
| Cc1cccc2cc(CN(Cc3ccc(F)cc3)C(=O)N3CCOCC3)c3nnnn3c12 | inconclusive: 106% |
| CCn1nc(NC(=O)c2ccncc2)c2cc3cccc(C)c3nc21 | inconclusive: 104% |
| Cc1cc(C(C)(C)C)cc(S(=O)(=O)Nc2cccc(C(=O)O)c2)c1C | inconclusive: 92% |
| Brc1[nH]nc2ccccc12 | inconclusive: 94% |
| Cn1nnnc1SCC(=O)Nc1ccc2c(c1)OCO2 | inactive: 98% |
| CC(Sc1nc2ccccc2s1)C(=O)c1c(N)n(C)c(=O)n(C)c1=O (centres undefined) | inconclusive: 94% |
| OCCC1CN(Cc2ccccc2O)CCN1CCc1ccccc1 (centres undefined) | active: 16% |
| Cc1cccc(NCc2ccc(O)c3ncccc23)c1C | inconclusive: 81% |
| O=C(OCC1O[C@@H](OC(=O)c2cc(O)c(O)c(O)c2)[C@@H](OC(=O)c2cc(O)c(O)c(O)c2)[C@@H](OC(=O)c2cc(O)c(O)c(O)c2)[C@@H]1OC(=O)c1cc(O)c(O)c(O)c1)c1cc(O)c(O)c(O)c1 (some centres undefined) | active: 79% |
| COc1ccc(OC)c(CN2CCN(Cc3cccc4ccccc34)CC2)c1 | inactive: 98% |
| Cc1ccc(S(=O)(=O)N(C)CC(=O)N2CCN(C(=O)c3ccco3)CC2)cc1 | inconclusive: 102% |
| CCn1c(C)nc2cc(C(=O)NNC(=O)c3ccc(Cl)nc3)ccc21 | inconclusive: 94% |
| CCn1nc(C(=O)OCC(=O)c2cc(C)n(Cc3cccs3)c2C)c2ccccc2c1=O | active: 76% |
| COc1cc(/C=C2\SC(=Nc3ccc(O)cc3)NC2=O)cc(OC)c1O | inactive: 83% |
| CS(=O)(=O)N(CC(=O)Nc1c(F)cccc1F)c1ccc(C23CC4CC(CC(C4)C2)C3)cc1 | inconclusive: 106% |
| Cc1ccc(C(=O)N2CCOCC2)cc1Cl | inconclusive: 93% |
| N=c1n(CCN2CCCC2)c2ccccc2n1CC(O)c1ccco1 (centres undefined) | inconclusive: 106% |
| Cc1nnc2ccc(-c3cccc(NC(=O)c4ccco4)c3)nn12 | active: 63% |
| CCOC(=O)N1CCC(N2Cc3cccc(C(=O)Nc4ccc(F)cc4)c3C2=O)CC1 | inconclusive: 87% |
| Cc1nn(-c2ccc(Cl)cc2Cl)c(C)c1C(=O)O | inconclusive: 96% |
| CCOc1ccc(S(=O)(=O)NC(C)C)cc1C(N)=O | inactive: 99% |
| COc1ccc2c(CC(=O)Nc3nccs3)coc2c1 | inactive: 100% |

| Compound | GTP binding activity |
| --- | --- |
| CC(C)NC(=O)COC(=O)c1ccccc1C(=O)c1ccccc1 | inconclusive: 93% |
| COc1ccc(S(=O)(=O)Nc2cc3c(cc2C(C)=O)OCO3)cc1 | inactive: 95% |
| COCC(=O)N1CCN(c2nc3ccccc3o2)CC1 | inactive: 100% |
| COc1ccccc1NC(=O)COC(=O)c1ccccc1C(=O)N1CCN(c2ccccc2)CC1 | inactive: 98% |
| CC(=O)Nc1ccc(S(=O)(=O)NCCSCc2c(Cl)cccc2Cl)cc1 | inconclusive: 102% |
| CCCCCC(=O)N1CC2(C)CN(C(=O)CCCCC)CC(C)(C1)C2=O | inconclusive: 104% |
| Oc1ccc(N=Cc2cc(Br)c(N3CCOCC3)o2)cc1 | inactive: 103% |
| COc1ccc(C(CC(=O)O)NC(=O)c2cc3cc(Br)ccc3oc2=O)cc1OC (centres undefined) | active: 76% |
| Nc1nc(SCC(=O)Nc2ccccc2)nc2nc3c(cc12)CCCC3 | inconclusive: 87% |
| CC(=O)c1cccc(NC(=O)C(=O)c2cn(CC(=O)N3CCCCC3)c3ccccc23)c1 | inconclusive: 94% |
| CNc1c([N+](=O)[O-])cnn1-c1cccc(Cl)n1 | inactive: 96% |
| Cc1ccc(N(CC(O)CN2CCCC2)S(=O)(=O)c2ccc(C)cc2)cc1 (centres undefined) | inconclusive: 104% |
| CC1CCN(CCCCOc2ccc([N+](=O)[O-])cc2)CC1 | inconclusive: 92% |
| Nc1nnc(/C=C/c2ccccc2)s1 | inactive: 99% |
| CN(C(=O)Cc1c(C(=O)O)n(C)c2ccccc12)c1ccc(F)cc1 | inactive: 98% |
| CC(=O)N1CCn2c3ccc(C)cc3c3cccc1c32 | inactive: 98% |
| CC(C)C(c1nnnn1Cc1ccc2c(c1)OCO2)N1CCN(C)CC1 (centres undefined) | inactive: 101% |
| O=C(Nc1cccn(Cc2c(Cl)cccc2Cl)c1=O)c1c(Cl)cccc1Cl | inconclusive: 106% |
| COc1cc(/C=N/NC(=O)CCc2c(C)n[nH]c2C)ccc1O | inconclusive: 102% |
| CCc1ccc(NC(=O)CSc2nnc(SCC(=O)Nc3ccc(CC)cc3)n2N)cc1 | inconclusive: 100% |
| O=C(COc1ccccc1)N/N=C/c1ccc2c(c1)OCO2 | inactive: 86% |
| COc1ccc(-c2cc(C#N)nc(N3CCNCC3)n2)cc1 | active: 127% [activator] |
| Cc1cccc(NC(=O)CCc2ccccc2)c1 | inconclusive: 108% |
| Nc1ccc(-c2nc3ccc(N)cc3[nH]2)cc1 | inconclusive: 92% |

| Compound | GTP binding activity |
| --- | --- |
| O=C(COc1ccccc1C(=O)Nc1ccccc1)c1ccc(Br)cc1 | inconclusive: 91% |
| Cc1ccc(NC(=O)C2CCCCC2C(=O)O)cc1Cl (centres undefined) | inconclusive: 85% |
| CCOC(=O)c1ccccc1NC(=O)/C(C)=C/C(=O)O | inactive: 98% |
| O=C(CCc1ccccc1)Nc1nc2nc(-c3ccccc3)cc(=O)n2[nH]1 | inconclusive: 93% |
| Cc1ccccc1S(=O)(=O)NC1OC(=O)C(Cl)=C1Cl (centres undefined) | inconclusive: 89% |
| CCCn1cc(CN2CCCC(CNC(=O)c3ccc(F)cc3)C2)c(C)n1 (centres undefined) | inconclusive: 135% |
| c1ccc(C2=Nn3c(nnc3-c3ccco3)SC2)cc1 | inconclusive: 75% |
| CCCc1cc(N2CCN(C(=O)c3ccco3)CC2)n2c(nc3ccccc32)c1C#N | active: 79% |
| CCOc1ccccc1N(CC(=O)N1CCCCCC1)S(C)(=O)=O | inconclusive: 103% |
| CCc1ccc(C(=O)/C=C/Nc2ccc(S(=O)(=O)Nc3onc(C)c3C)cc2)cc1 | inconclusive: 92% |
| COc1ccc2c(c1)CCCC21SC(NC(C)=O)=NN1C(C)=O (centres undefined) | inactive: 96% |
| COc1ccc(-c2nnc(SCC(=O)Nc3nncs3)o2)cc1 | inconclusive: 90% |
| CCOc1cc(/C=C/C(=O)OCC(=O)NC2CCS(=O)(=O)C2)ccc1OCc1ccccc1 (centres undefined) | inactive: 95% |
| COc1cccc(C(=O)Nc2cccc3c2ccc2cccn23)c1 | inconclusive: 92% |
| Brc1c(OCCOCCn2cncn2)ccc2ccccc12 | inconclusive: 97% |
| CNS(=O)(=O)c1ccc(NC(=O)C2CC(=O)N(c3ccc(Cl)cc3)C2)cc1 (centres undefined) | inconclusive: 90% |
| COCCNc1nc2nonc2nc1N(C)Cc1ccc(C)cc1 | inactive: 95% |
| COC(=O)c1cn(C(=O)/C=C/c2ccc(OC)c(OC)c2)c2ccccc12 | inconclusive: 83% |
| CN(C)CCCNCCCCNC(=O)/C=N/O | inconclusive: 103% |
| O=C(Cc1ccccc1)NNC(=O)C1CCCC1 | inconclusive: 94% |
| O=C(Cn1cnc2c(nnn2Cc2ccc(F)cc2)c1=O)OCc1ccccc1 | inconclusive: 99% |
| O=C(CCc1nnc(CCCc2ccccc2)o1)NC(C1CC1)C1CC1 | inconclusive: 95% |
| COc1cccc(N=Nc2c(N)[nH]n3c(=O)cc(-c4ccccc4)nc23)c1 | inactive: 88% |
| O=C(CSc1nc2ccccc2c(=O)n1NC(=O)c1ccccc1)c1ccccc1 | inconclusive: 92% |

| Compound | GTP binding activity |
| --- | --- |
| Cc1cc(Cl)ccc1NC(=S)NCCN1CCOCC1 | inconclusive: 99% |
| CCOc1ccccc1C1C(C#N)=C(N)Oc2n[nH]c(CC)c21 (centres undefined) | inconclusive: 109% |
| CCC1SC2=NC(C)=C(C(=O)OC)C(c3ccc(C)cc3)N2C1=O (centres undefined) | inconclusive: 89% |
| Cc1ccc(S(=O)(=O)Nc2cccnc2)cc1 | inconclusive: 100% |
| Cc1ccc(C(=O)N/N=C(\CC(C)C)c2ccccc2)cc1 | inconclusive: 119% |
| COc1cc(C(=O)Nc2ccc3c(c2)CCN3C(C)=O)cc(OC)c1OC | inconclusive: 176% |
| COc1ccc(CCNC(=O)[C@@H](NC(=O)c2ccccc2F)C(C)C)cc1OC | inactive: 97% |
| CCOC(=O)CSc1n[nH]c(NC(=O)c2cccc(C(F)(F)F)c2)n1 | inactive: 98% |
| COc1cccc(NC(=O)c2ccc(C(=O)c3ccccc3)o2)c1 | inactive: 94% |
| O=C(NC1CCN(C(=S)NCc2ccco2)CC1)c1ccc(F)cc1 | inconclusive: 106% |
| COc1ccc(-c2csc(NC(=O)c3ccccc3NS(=O)(=O)c3ccc(F)c(F)c3)n2)cc1 | inconclusive: 84% |
| O=C(Nc1ccc(F)cc1)N1CCN(c2ccc3nnc(-c4ccc(F)cc4)n3n2)CC1 | inconclusive: 88% |
| CNc1nc(-c2ccc3c(c2)CCN3S(=O)(=O)c2ccccc2)c(C)s1 | inactive: 98% |
| COc1ccc(-c2cc(-c3ccccc3)c(C#N)c(=S)[nH]2)cc1 | inactive: 85% |
| Cn1c(=O)c2c(nc(OCc3cccnc3)n2Cc2c(F)cccc2Cl)n(C)c1=O | inactive: 99% |
| O=C(CSc1ncnc2c1oc1ccccc12)NCc1ccc(F)cc1 | inactive: 97% |
| O=C(Nc1ccc(Cl)cc1)c1csc(-c2ccncc2)n1 | inconclusive: 87% |
| COc1ccc(OC)c(C2CC(=O)Nc3n[nH]c(-c4ccccc4)c32)c1 (centres undefined) | inconclusive: 95% |
| CCn1c(CNC(=O)c2ccccc2F)nnc1SCC(=O)NC1CCCCC1C (centres undefined) | inactive: 99% |
| COc1cc(/C=N/Nc2nc(C)nc3c2cnn3-c2ccccc2)ccc1O | active: 79% |
| COc1ccccc1C(=O)N=Nc1c(O)[nH]c2ccc([N+](=O)[O-])cc12 | active: 51% |
| CCCn1c(=N)n(CC(O)COc2cccc(C)c2)c2ccccc21 (centres undefined) | inconclusive: 103% |
